Laboratory results reported in PubChem BioAssay AID624296 (National Center for Advancing Translational Sciences (NCATS), 2012).
About 9,900 (2.8%) of roughly 350,000 compounds were called active. The shares of active, inactive and inconclusive entries below differ from those in the screen. The call rests on the fitted dose curve; in most records, active means well fitted activation curve with a large enough effect; inconclusive means small, poorly fitted or top-dose-only effect; inactive means no such curve, though single readings can be large or run the other way. No potency is given beside an inconclusive call; the fits are too rough.

Experiment: A quantitative high throughput screen for small molecules that induce DNA re-replication in MCF 10a normal breast cells. Further: nearly all actives have a fitted effect of over 50% in size. On activity, positive = re-replication: % of control where 0% means no effect.
Settings: MCF 10A DNA re-replication, Hoechst nuclear intensity, 48 h; activity, positive = re-replication: at 46.1 µM (top of the series)
Potency means the concentration at half of the fitted maximal effect; tags describe the fitted curve by direction and shape.

Question: With `Cn1c(/C=N/c2nc3ccccc3[nH]2)nc2ccccc21` as the compound, how does the Potency read?
Answer: inconclusive [activator, single point]

Question: Which Potency does the source give for `Cc1cccc(C(=O)Nc2ccc(C(=O)/C=C/c3ccncc3)cc2)c1` here?
Answer: inconclusive [activator, full curve, poor fit]

Question: For `CC[C@]1(c2ccccc2OC)ON(c2ccccc2C(F)(F)F)C1=O`, which Potency is on record?
Answer: inconclusive [activator, single point]

Question: With `COc1cccc(-c2ccc(NC(=O)C3CCCN(Cc4ccc(CO)o4)C3)cc2)c1` (stereo not given) as the compound, how does the “activity, positive = re-replication” value read?
Answer: inactive: 17.5%

Question: For `OCC1(Cc2ccc(Cl)cc2)CCN(Cc2ccc(F)c(F)c2)CC1`, which Potency is on record?
Answer: inconclusive [activator, full curve, poor fit]

Question: Which “activity, positive = re-replication” value does the source give for `CC(C)C(=O)NCCc1nc2ccccc2n1C` here?
Answer: inactive: -3.65%

Question: For `Cc1cccc(N(C)S(=O)(=O)c2csc(C(N)=O)c2)c1`, which “activity, positive = re-replication” value is on record?
Answer: inactive: -12.4%

Question: Which Potency does the source give for `COc1cccc(/C=N/NC(=O)CCc2ccccc2)c1` here?
Answer: inconclusive [activator, partial curve, poor fit]

Question: Which “activity, positive = re-replication” value does the source give for `O=C(NCc1ccco1)C(c1ccccc1)N(C(=O)Cc1cccs1)c1ccccc1F` (stereo not given) here?
Answer: inactive: 14.7%

Question: For `O=C(O)c1cccc(CSc2nnc(-c3ccco3)o2)c1`, which “activity, positive = re-replication” value is on record?
Answer: inactive: -1.7%

Question: Which “activity, positive = re-replication” value does the source give for `Cc1cc(C)nc(/N=C(\N)Nc2cc([N+](=O)[O-])ccc2C)n1` here?
Answer: inactive: -0.556%

Question: With `O=c1c(Cl)c(NCc2ccco2)cnn1C12CC3CC(CC(C3)C1)C2` as the compound, how does the Potency read?
Answer: inconclusive [activator, full curve, poor fit]

Question: Which Potency does the source give for `O=C1/C(=C\c2ccc(Cl)c(Cl)c2)CN(C(=O)CCN2CCOCC2)C/C1=C/c1ccc(Cl)c(Cl)c1` here?
Answer: inconclusive [activator, full curve, poor fit]

Question: Which Potency does the source give for `COc1cccc(NC(=O)C(Sc2nc3ccccc3c(=O)n2CC(C)C)c2ccccc2)c1` (stereo not given) here?
Answer: inconclusive [activator, single point]

Question: For `COCc1c(C)cc(C)c(/C=N/O)c1C`, which Potency is on record?
Answer: inconclusive [activator, single point]

Question: For `Cc1ccc2oc(-c3ccc(NC(=O)c4ccncc4)cc3O)nc2c1`, which “activity, positive = re-replication” value is on record?
Answer: inactive: 4.03%

Question: With `CCOC(=O)CC(NC(=O)c1cc2cccc(OC)c2oc1=O)c1cccc([N+](=O)[O-])c1` (stereo not given) as the compound, how does the Potency read?
Answer: inconclusive [activator, single point]

Question: Which “activity, positive = re-replication” value does the source give for `FC(F)(F)c1cccc(-c2ccn3ncnc3n2)c1` here?
Answer: inactive: 7.41%

Question: Which Potency does the source give for `CC(C)N(Cc1cn[nH]c1-c1ccc(-c2ccccc2)cc1)Cc1nccn1C` here?
Answer: inconclusive [activator, single point]

Question: For `CCNc1ccc(S(=O)(=O)N(C)C)cc1NCC(=O)Nc1ccc(F)c(Cl)c1`, which Potency is on record?
Answer: inconclusive [activator, partial curve]
